The whole screen tested about 410,000 compounds, of which about 5,000 (1.2%) were called active. Inconclusive means that the source gave no clear call. Such entries were picked first, then a sample of the others. Calls come from the whole dose curve; as a rule, active = well fitted inhibition curve with a large enough effect; inconclusive = small, poorly fitted or top-dose-only effect; inactive = no such curve, though single readings can be large or run the other way. Potencies of inconclusive entries are doubtful fits and often do not repeat.
Experiment: qHTS for Inhibitors of TGF-b; note: nearly all actives have a fitted effect of over 65% in size
Conditions: HepG2 CAGA-GFP TGF-b/SMAD3 reporter, GFP fluorescence, 18 h, TGF-beta stimulated, 500 pg/mL final; series mostly up to 46.1 µM; activity, negative = inhibition: at the top concentration
In short: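 Per well, imaged GFP fluorescence of HEPG2 CAGA-GFP cells gives the signal; cells get compound, then TGF-beta (500 pg/mL final), 18 h at 37 degrees C; %Activity versus -TGF-beta and +DMSO controls.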
% is set by controls: 0 for no effect and ±100 for the full control effect; potency is the fitted concentration of half-maximal effect; tags give direction and shape of the fitted curve.

SMILES	Potency	activity, negative = inhibition
COc1ccc(C)cc1NC(=O)c1cccc(-c2ccc(OC(C)=O)cc2)c1	inconclusive: 35.5 µM [inhibitor, single point]	–
COc1ccccc1N(C)S(=O)(=O)c1ccc(Cl)c(C(=O)NCc2ccco2)c1	inconclusive: 8.91 µM [inhibitor, partial curve, poor fit]	–
CCCCn1c(O)c(N=Nc2ccccn2)c2ccccc21	inconclusive: 3.55 µM [inhibitor, partial curve, poor fit]	–
CCC(=O)N1CCc2cc(CNS(=O)(=O)c3ccc(NC(=O)CC(C)C)cc3)ccc21	inconclusive: 35.5 µM [inhibitor, single point]	–
COc1cccc(C(=O)N2CCN(c3ccc(N4CCOCC4)nn3)CC2)c1	–	inactive: 7.92%
CCOc1cc(N2CCOCC2)c(OCC)cc1NC(=O)COC(=O)CCOc1cc(C)ccc1C	–	inactive: -7.25%
COc1ccc(-c2csc(C(C)(O)c3cccc(F)c3)n2)cc1 (stereo not given)	–	inactive: -21.7%
CCOc1ccc(NC(=O)c2c(NC(=O)c3ccccc3F)sc3c2CCC3)cc1	–	inactive: 7.39%
CCc1cccc(C)c1NC(=O)CCNC(=O)c1cccc(C)c1	–	inactive: -5.21%
O=C(NCC1CCCO1)c1cc2c([nH]c3ccccc32)c(-c2cccc(Cl)c2)n1 (stereo not given)	inconclusive: 22.4 µM [inhibitor, single point]	–
OCCCCCCNc1ccc(CCO)cc1	–	inactive: 1.47%
CCOc1ccccc1NC(=O)c1c(NCc2cccs2)sc2c1CCCCC2	active: 17.8 µM	–
CC1Cc2cc(S(=O)(=O)N3CCN(c4ccccc4)CC3)ccc2N1C(=O)C1CC1 (stereo not given)	–	inactive: -9.39%
Nc1ccc(C(=O)Nc2cccc3ncccc23)cc1	inconclusive: 15.8 µM [inhibitor, partial curve, poor fit]	–
CC(C)C[C@H]1CNC(=S)N1CC1CCCN1C[C@H](Cc1ccc(O)cc1)N1C[C@H](Cc2ccccc2)N(CC2CCCCCC2)C1=S (stereo not given in full)	inconclusive: 22.4 µM [inhibitor, partial curve, poor fit]	–
CCOc1ccc(-c2nnc(NC(=O)C3CCCC3)o2)cc1	–	inactive: 7.36%
COCCN1C(=O)/C(=C/c2cc3c(cc2Br)OCO3)NC1=S	–	inactive: -26.9%
COc1cc(C(=O)N2c3ccccc3CC2C)cc(OC)c1OC (stereo not given)	inconclusive: 35.5 µM [inhibitor, single point]	–
Cc1nc(CS(=O)(=O)c2ccc(Cl)cc2)cc(Sc2ccc(Cl)cc2)n1	inconclusive: 35.5 µM [inhibitor, single point]	–
Cc1ccc(NC(=O)CN2CCCN(S(=O)(=O)c3ccc(Br)s3)CC2)cc1	inconclusive: 12.6 µM [inhibitor, single point]	–
